According to the supplement of paper PMC4604168 (melanoma cell lines):
The list shows a part of the results. Most values come without repeats; read them as rough.

Each compound was assayed on SkMel28 (assay: cell count relative to DMSO control; melanoma cells; higher = more viable cells). Settings: library dose: standard library concentration; 72 h.
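Also: cells treated in 1,536-well plates, then fixed and DAPI-stained, with nuclei counted from automated high-throughput microscope images.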

Compound	cell count [%]
NC(=O)c1ccc(N(C(N)=O)c2c(F)cccc2F)nc1-c1ccc(F)cc1F + CN(C)S(=O)(=O)c1ccc2c(c1)/C(=C/c1cc3c([nH]1)CCCC3)C(=O)N2 [SU6656] (first compound 2 µM, partner dose 2 µM)	57.4
CCCCCCCCc1ccc(CCC(N)(CO)CO)cc1 [fingolimod] + COCC[n+]1c2c(n(Cc3cnccn3)c1C)C(=O)c1ccccc1C2=O [YM155] (first compound 10 µM, partner dose 0.002 µM)	0.223
CC(C)(C)c1cnc(CSc2cnc(NC(=O)C3CCNCC3)s2)o1 + COc1ccc2c(c1)CCC1C2CCC2(C)C(NCCCCCCN3C(=O)C=CC3=O)CCC12 [U73122] (first compound 0.05 µM, partner dose 2 µM)	89.8
CC(C)(C)c1cnc(CSc2cnc(NC(=O)C3CCNCC3)s2)o1 + COc1ccc(COc2ccc(Cc3cnc(N)nc3N)cc2OC)cc1 [GW2580] (first compound 0.05 µM, partner dose 5 µM)	54.4
